# Results taken from ChEMBL document CHEMBL4888484, “Replenishing the malaria drug discovery pipeline: Screening and hit evaluation of the MMV Hit Generation Library 1 (HGL1) against asexual blood stage Plasmodium falciparum ,using a nano luciferase reporter read-out” (2022).
# The campaign covered roughly 150,000 compounds. About 540 (0.36%) showed an effect of 50% or more. Some of the results follow.
# Tested on: Plasmodium falciparum
# Test: Primary screen in NF54 nanoGlo assay, in single point, at 2uM, 72h; a lower Z score goes with more inhibition
# Assay type: functional, Erythrocyte
# Details: timepoint 72 hour
SMILES,% Inhibition,Z score
C[C@H]1C(=O)N(C)CCN1Cc1ccc2ccccc2n1,4%,-0.62
Cc1nn(C(C)C)c(C)c1S(=O)(=O)Nc1nc(C(C)C)nn1C,0%,0.04
Cc1onc(-c2cccs2)c1C(=O)N1CCn2ncnc2C1,-1%,0.24
FC(F)(F)c1ccnc(Oc2cccc(-n3cncn3)c2)n1,-4%,0.57
NC(=O)[C@H](CC1CCCCC1)NC(=O)[C@@H]1CN(C(=O)c2cccnc2)CCN1C(=O)C1CCCCC1,6%,-0.75
CCN1C(=O)C[C@H](C(=O)NCc2cccc(C(C)=O)c2)[C@H]1c1nccn1CC,4%,-0.59
COc1ccc([C@H](CNS(=O)(=O)c2ccc(F)cc2)N2CCCCC2)cc1,-16%,2.36
Cc1cccc(-c2nc3ccc(C(=O)NCc4ccc5c(c4)OCO5)cc3nc2-c2cccc(C)c2)c1,9%,-1.14
Cc1ccc(C(=O)Nc2sc3c(c2C(N)=O)CCCCCCCCCC3)cc1,4%,-0.53
Cc1ccc(CN2C[C@]34C=C[C@H](O3)C(C(=O)NCc3ccc5c(c3)OCO5)[C@H]4C2=O)cc1 (stereo partly drawn),-9%,1.36
O=C(Nc1ccc(OCc2ccccc2)cc1)C1CCN(S(=O)(=O)Cc2ccc(Cl)cc2)CC1,-7%,1.4
CC[C@H](C)N1CCC(O)(c2ccc3oc(C(=O)N(C)Cc4ccc5ncccc5c4)cc3c2)CC1,-9%,1.13
Cc1c(C(=O)NC2CC(C(=O)O)c3ccccc32)ccn1C (stereo not drawn),-3%,0.57
COC[C@H](NC(=O)Nc1cnns1)c1ccco1,10%,-1.58
C[C@H](NS(=O)(=O)C1CC1)c1ccc(F)cc1F,3%,-0.3
N#Cc1ccc(NC(=O)N2CCC3(CC2)C(=O)N(CC(=O)NC[C@H]2CCCO2)CN3c2ccccc2)cc1,-13%,1.15
COc1ccc(F)cc1S(=O)(=O)N1CCN(c2nccs2)C(=O)C1,12%,-1.53
CN(C)CCN(C)C(=O)C(=O)Nc1ccc(N(C)C)c(Cl)c1,-3%,0.37
CCc1ncnc(N2CC[C@H](c3ncccn3)C2)c1F,-6%,0.7
CC[C@@H](C(=O)NCc1ccc(C)cc1)n1c(=O)n(-c2cccc(C(F)(F)F)c2)c(=O)c2sccc21,5%,-0.51
Cc1cc(CN(C)C(=O)c2cc(=O)[nH]c3ccc(F)cc23)no1,-8%,0.8

SMILES,% Inhibition,Z score
O=C(O)[C@H]1CN(c2nccc(C(F)(F)F)n2)CC12CCC2,-5%,0.62
Cc1nc(C2CCCCC2)sc1C(=O)N1CCC12COC2,34%,-3.81
CC(NC(=O)OC(C)(C)C)C1CCCN(CCn2cccn2)C1 (stereo not drawn),-12%,1.23
CCc1cc(NC(=O)[C@@H](C)COC)nc(C)n1,5%,-0.67
CC(C)Cc1nnc(C[C@H]2CCN(S(=O)(=O)c3ccccc3F)C2)o1,-13%,1.94
CCCc1nnc(N[C@@H](C)Cn2nc(C)cc2C)o1,26%,-3.26
CC1CCC(C(=O)N2CC(=O)N(C)c3ccccc32)O1 (stereo not drawn),-4%,0.52
CCC(=O)N[C@@H]1CC[C@@]2(OC)CCN(C(=O)c3ccc4[nH]nnc4c3)[C@H]2C1,-11%,2.26
CCCc1nc(CN(C)Cc2cncs2)no1,-13%,1.42
CC(C)(C)C(=O)N1CCC(CCOCc2ccc(F)cc2)CC1,-16%,3.03
CCC(CC)n1nc(C)cc1C(=O)N[C@@H](C)c1ccc(Cl)cn1,-7%,1.06
Cn1cnc(-c2nc(-c3ccc(-c4ccccc4)cc3)no2)n1,0%,-0.01
COC(=O)c1ccc(C(=O)OC)c(N)c1C,-7%,1.15
CC(C)CN(Cc1ccsc1)C(=O)NCCc1ncc[nH]1,1%,-0.16
CN1CC(=O)N(c2cccc(NC(=O)NCC3(Cn4cccn4)CC3)c2)C1=O,2%,-0.46
CCCN(Cc1cccnc1)C(=O)[C@@H](N)c1ccccc1Cl,-1%,0.11
Cn1cc(NC(=O)CN2CCN(C(=O)OC(C)(C)C)CC2=O)cc(Cl)c1=O,-5%,0.7
COc1ccc(COCC(=O)N2CC3CN(c4ccccc4)CC3C2)cn1 (stereo not drawn),3%,-0.43
C[C@@H](C(=O)NCc1ccco1)n1nc(-c2ccccc2)c2cc(Cl)ccc21,1%,-0.28
O=C(NCc1nnc2n1CCC2)C1CC1c1cccc(F)c1F (stereo not drawn),-5%,0.71
c1cc(-c2noc(COC[C@H]3CCCO3)n2)cs1,-12%,2.33

SMILES,% Inhibition,Z score
c1csc(-c2nc(COc3ccccc3-c3nnc[nH]3)cs2)c1,-18%,1.79
CCc1nc2ccccc2n1[C@@H](CC)C(=O)NCCCn1ccnn1,-5%,1
CC(C)CCN(C(=O)c1cc2ccccc2[nH]1)C1CC1,-3%,0.35
O=c1c2c(ncn1CCOCC(F)F)[nH]c1ccccc12,-8%,1.49
O=C1C[C@H]2CC[C@@H](CN1)N2c1ncccc1F,-8%,1.38
Oc1nnnc2c1cnn2-c1ccccc1,33%,-3.69
O=C1CN(Cc2cccc(OC(F)(F)F)c2)CCCN1,-3%,0.42
Cc1nn(C)c(C)c1C(=O)N1C[C@@H]2CC[C@H]1CN(CCCc1ccccc1)C2,0%,0.08
Cn1cccc1C(=O)NCCCc1nnc(N)s1,-16%,1.48
COCCNC(=O)C1CC(c2cccc(C)c2)CN(Cc2ccccc2F)C1 (stereo not drawn),-3%,0.34
Cn1ccnc1N1CCN(CC(=O)N[C@](C)(C#N)C2CC2)CC1,2%,-0.25
COc1ccc(NC(=O)c2ccc(CN3C(=O)CNC3=O)cc2)c(OC)c1,-7%,1.32
COc1c(C)cc(S(=O)(=O)Nc2ccc3c(c2)C(=O)N(C)CCO3)cc1C,-14%,2.51
COc1cccnc1C(=O)NCc1cc2n(n1)CCCC2,-26%,3.58
CCc1[nH]nc(-c2ccccc2OC)c1NC(=O)Cc1ccc(OC)cc1,-12%,1.59
CO[C@H]1COC[C@@H]1NC(=O)Cc1c(Cl)cccc1Cl,-12%,1.44
CCO[C@H]1COC[C@@H]1NC(=O)c1n[nH]nc1C,0%,0.03
Cc1cc2c(cc1-c1ccnc(Nc3ccc(F)cc3)n1)NC(C)(C)C[C@@H]2C,-17%,2.25
Cc1cc(-c2nc3cc(F)ccc3n2C)ccc1NC(=O)N1CC[C@H](N)C1,-13%,1.79
CCc1cnc(C)nc1N1CCC2(CC1)C[C@H](c1ccccc1)C(=O)N2C,0%,-0.07
Cc1cc(C(=O)NCCN(C2CCOCC2)S(=O)(=O)N(C)C)c(C)o1,-4%,0.58

SMILES,% Inhibition,Z score
COc1ccc(CNC(=O)c2n[nH]c3c2CCc2ccccc2-3)cc1,-13%,1.13
O=C(NC(c1cccc(F)c1F)C(F)(F)F)C1CCOC1 (stereo not drawn),-8%,0.81
CCN(CC)Cc1ccc2c(c1)CN(C(=O)c1cccc(OC)c1)CCO2,6%,-1.21
CCn1cnnc1CN(C)C(=O)CCCc1cn[nH]c1,-3%,0.43
O=C(c1cn(C(c2ccccc2)c2ccccc2)nn1)N1CCC[C@H](CO)C1,-25%,3.76
C[C@H]1CN(Cc2ccncc2F)CCC1=O,5%,-0.86
CCN(C)c1ccc(C=Cc2nc(C(=O)O)ccc2C#N)cn1,9%,-0.77
Cc1ncsc1CCN(C)c1nc(C(N)=O)cs1,-1%,0.14
CCOC(=O)c1sc2nc(-c3ccc(C)cc3)c(NCc3ccc(Cl)cc3)n2c1C,-9%,0.97
Cc1cc(NC(=O)c2cc(S(=O)(=O)N3CCN(C)CC3)cs2)no1,-20%,2.31
Cc1cccc(-n2nc(C)c(CCC(=O)NCc3ccccc3)c2Oc2ccccc2)c1,-21%,2.31
CCOCCS(=O)(=O)NCC(=O)N1CC(C)CCC1C (stereo not drawn),1%,-0.17
Cc1ccc(N(C)C(=O)CCN2C(=O)CCC2=O)c(C)c1,-29%,3.4
Cc1cnc(C(=O)NC2C[C@H]3CC[C@@H](C2)N3C(=O)Cc2cccc(F)c2)cn1 (stereo partly drawn),-2%,0.33
Cc1nc(NC(=O)CNC(=O)COc2ccccc2)sc1C,-4%,0.83
O=C(Cn1nc(N2CCOCC2)ccc1=O)N1CCN(c2ccccn2)CC1,-22%,1.9
O=C1N(Cc2ccc(F)c(F)c2)CCC[C@@]12CCN(CC1CCCC1)C2,-10%,1.26
Cc1c[nH]c(CN(C)C(=O)Nc2ccc(C)c(C)c2)n1,-6%,0.73
COc1ccc(OC(C)c2nc(C3CCCN3C(=O)OC(C)(C)C)no2)cc1 (stereo not drawn),-8%,0.93
CCOC(=O)c1nc(CNC(=O)OC(C)(C)C)sc1N,-6%,0.62
O=C1OCCCN1CCn1ccnc1-c1cnc(N2CCCC2)s1,-10%,2.02
